# This is one part of the list.
# B1: OrfX (Escherichia coli), Q9X4B6_ECOLX (protein)
# chain: MIKIARIAVTLGLLSSLGAQAYAAGLVVNDNDLRNDLAWLSDRGVIHLSLSTWPLSQEEIARALKKAKPSYSSEQVVLARINQRLSALKADFRVTGYTSTDQPGTPQGFGQTQPADNSLGLAFNNSGEWWDVHLQGNVEGGERISNGSRFNANGAYGAVKFWNQWLSFGQVPQWWGPGYEGSLIRGDAMRPMTGFLMQRAEQAAPETWWLRWVGPWQYQISASQMNQYTAVPHAKIIGGRFTFTPFQSLELGASRIMQWGGEGRPQSFSSFWDGFTGHDNTGTDNEPGNQLAGFDFKFKLEPTLGWPVSFYGQMVGEDESGYLPSANMFLGGVEGHHGWGKDTVNWYVEAHDTRTNMSRTNYSYTHHIYKDGYYQQGYPLGDAMGGDGQLIAGKVELITEDNQRWSTRLVYAKVNPENQSINKAFPHADTLKGLQLGWSGDVYQSVRLNTSLWYTNANNSDSDDVGASAGIEIPFSL
# Experiments:
# Test in all cases: glycan array binding signal (z-score within array); higher = stronger binding
# Conditions in all cases: glycan notation: IUPAC condensed, linker removed
# [1] = biological target: Neu5Ac(a2-3)Gal(b1-3)GlcNAc(b1-3)GalNAc
# Outline: (§1)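 The Consortium for Functional Glycomics database supplied 3228 glycan arrays, of which those lacking an available protein sequence were dropped. The binding signal, a within-array Z-score, was averaged across arrays of the same protein sequence and across linkers. Negative scores can be read as non-binding.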
# [2] = biological target: Neu5Ac(a2-3)Gal(b1-3)GlcNAc(b1-6)GalNAc
# Outline: as §1
# [3] = biological target: Neu5Ac(a2-3)Gal(b1-3)GlcNAc6S
# Outline: as §1
# [4] = biological target: Neu5Ac(a2-3)Gal(b1-3)[Fuc(a1-4)]GlcNAc
# Outline: as §1
# [5] = biological target: Neu5Ac(a2-3)Gal(b1-3)[Fuc(a1-4)]GlcNAc(b1-3)Gal(b1-3)[Fuc(a1-4)]GlcNAc
# Outline: as §1
# [6] = biological target: Neu5Ac(a2-3)Gal(b1-3)[Fuc(a1-4)]GlcNAc(b1-3)Gal(b1-4)[Fuc(a1-3)]GlcNAc
# Outline: as §1
# [7] = biological target: Neu5Ac(a2-3)Gal(b1-3)[Neu5Ac(a2-3)Gal(b1-4)]GlcNAc
# Outline: as §1
# [8] = biological target: Neu5Ac(a2-3)Gal(b1-3)[Neu5Ac(a2-6)]GalNAc
# Outline: as §1
# [9] = biological target: Neu5Ac(a2-3)Gal(b1-3)[Neu5Ac(a2-6)]GlcNAc(b1-3)[Fuc(a1-3)[Gal(b1-4)]GlcNAc(b1-6)]Gal(b1-4)Glc
# Outline: as §1
# Neu5Ac(a2-3)Gal(b1-4)Glc = biological target: Neu5Ac(a2-3)Gal(b1-4)Glc
# Outline: as §1
# [10] = biological target: Neu5Ac(a2-3)Gal(b1-4)GlcNAc
# Outline: as §1
# [11] = biological target: Neu5Ac(a2-3)Gal(b1-4)GlcNAc(b1-2)Man
# Outline: as §1
# [12] = biological target: Neu5Ac(a2-3)Gal(b1-4)GlcNAc(b1-2)Man(a1-3)[GlcNAc(b1-2)Man(b1-4)GlcNAc(b1-2)Man(a1-6)]Man(b1-4)GlcNAc(b1-4)GlcNAc
# Outline: as §1
# [13] = biological target: Neu5Ac(a2-3)Gal(b1-4)GlcNAc(b1-2)Man(a1-3)[Neu5Ac(a2-3)Gal(b1-4)GlcNAc(b1-2)Man(a1-6)]Man(b1-4)GlcNAc(b1-4)[Fuc(a1-6)]GlcNAc
# Outline: as §1
# [14] = biological target: Neu5Ac(a2-3)Gal(b1-4)GlcNAc(b1-2)Man(a1-3)[Neu5Ac(a2-6)Gal(b1-4)GlcNAc(b1-2)Man(a1-6)]Man(b1-4)GlcNAc(b1-4)GlcNAc
# Outline: as §1
# [15] = biological target: Neu5Ac(a2-3)Gal(b1-4)GlcNAc(b1-2)[Neu5Ac(a2-3)Gal(b1-4)GlcNAc(b1-6)]Man(a1-6)[Neu5Ac(a2-3)Gal(b1-4)GlcNAc(b1-2)Man(a1-3)]Man(b1-4)GlcNAc(b1-4)GlcNAc
# Outline: as §1
# [16] = biological target: Neu5Ac(a2-3)Gal(b1-4)GlcNAc(b1-3)Gal
# Outline: as §1
# [17] = biological target: Neu5Ac(a2-3)Gal(b1-4)GlcNAc(b1-3)Gal(b1-3)GlcNAc
# Outline: as §1
# [18] = biological target: Neu5Ac(a2-3)Gal(b1-4)GlcNAc(b1-3)Gal(b1-4)GlcNAc
# Outline: as §1
# [19] = biological target: Neu5Ac(a2-3)Gal(b1-4)GlcNAc(b1-3)Gal(b1-4)GlcNAc(b1-3)Gal(b1-4)GlcNAc
# Outline: as §1
# [20] = biological target: Neu5Ac(a2-3)Gal(b1-4)GlcNAc(b1-3)Gal(b1-4)[Fuc(a1-3)]GlcNAc
# Outline: as §1
# [21] = biological target: Neu5Ac(a2-3)Gal(b1-4)GlcNAc(b1-3)GalNAc
# Outline: as §1
# [22] = biological target: Neu5Ac(a2-3)Gal(b1-4)GlcNAc(b1-3)[Neu5Ac(a2-3)Gal(b1-4)GlcNAc(b1-6)]GalNAc
# Outline: as §1
# [23] = biological target: Neu5Ac(a2-3)Gal(b1-4)GlcNAc(b1-6)GalNAc
# Outline: as §1
# [24] = biological target: Neu5Ac(a2-3)Gal(b1-4)GlcNAc(b1-6)[Gal(b1-3)]GalNAc
# Outline: as §1
# [25] = biological target: Neu5Ac(a2-3)Gal(b1-4)GlcNAc(b1-6)[Neu5Ac(a2-3)Gal(b1-3)]GalNAc
# Outline: as §1
# [26] = biological target: Neu5Ac(a2-3)Gal(b1-4)GlcNAc6S
# Outline: as §1
# [27] = biological target: Neu5Ac(a2-3)Gal(b1-4)[Fuc(a1-3)]GlcNAc
# Outline: as §1
# [28] = biological target: Neu5Ac(a2-3)Gal(b1-4)[Fuc(a1-3)]GlcNAc(b1-3)Gal
# Outline: as §1
# [29] = biological target: Neu5Ac(a2-3)Gal(b1-4)[Fuc(a1-3)]GlcNAc(b1-3)Gal(b1-4)GlcNAc
# Outline: as §1
# [30] = biological target: Neu5Ac(a2-3)Gal(b1-4)[Fuc(a1-3)]GlcNAc(b1-3)Gal(b1-4)[Fuc(a1-3)]GlcNAc(b1-3)Gal(b1-4)[Fuc(a1-3)]GlcNAc
# Outline: as §1
# [31] = biological target: Neu5Ac(a2-3)Gal(b1-4)[Fuc(a1-3)]GlcNAc(b1-3)GalNAc
# Outline: as §1
# [32] = biological target: Neu5Ac(a2-3)Gal(b1-4)[Fuc(a1-3)]GlcNAc(b1-6)[Gal(b1-3)]GalNAc
# Outline: as §1
# [33] = biological target: Neu5Ac(a2-3)Gal(b1-4)[Fuc(a1-3)]GlcNAc6S
# Outline: as §1
# [34] = biological target: Neu5Ac(a2-3)Gal6S(b1-4)GlcNAc
# Outline: as §1
# [35] = biological target: Neu5Ac(a2-3)Gal6S(b1-4)[Fuc(a1-3)]GlcNAc
# Outline: as §1
# Neu5Ac(a2-3)GalNAc = biological target: Neu5Ac(a2-3)GalNAc
# Outline: as §1
# [36] = biological target: Neu5Ac(a2-3)GalNAc(b1-4)GlcNAc
# Outline: as §1
binder,measurement,setting,value
B1,glycan array binding signal (z-score),[1],-0.337
same,glycan array binding signal (z-score),[2],-0.074
same,glycan array binding signal (z-score),[3],-0.301
same,glycan array binding signal (z-score),[4],-0.249
same,glycan array binding signal (z-score),[5],0.243
same,glycan array binding signal (z-score),[6],-0.183
same,glycan array binding signal (z-score),[7],-0.106
same,glycan array binding signal (z-score),[8],0.608
same,glycan array binding signal (z-score),[9],-0.357
same,glycan array binding signal (z-score),Neu5Ac(a2-3)Gal(b1-4)Glc,-0.385
same,glycan array binding signal (z-score),[10],-0.31
same,glycan array binding signal (z-score),[11],7.89
same,glycan array binding signal (z-score),[12],-0.297
same,glycan array binding signal (z-score),[13],-0.317
same,glycan array binding signal (z-score),[14],-0.218
same,glycan array binding signal (z-score),[15],-0.287
same,glycan array binding signal (z-score),[16],-0.223
same,glycan array binding signal (z-score),[17],-0.228
same,glycan array binding signal (z-score),[18],-0.194
same,glycan array binding signal (z-score),[19],-0.227
same,glycan array binding signal (z-score),[20],-0.258
same,glycan array binding signal (z-score),[21],-0.138
same,glycan array binding signal (z-score),[22],-0.029
same,glycan array binding signal (z-score),[23],-0.258
same,glycan array binding signal (z-score),[24],-0.37
same,glycan array binding signal (z-score),[25],-0.243
same,glycan array binding signal (z-score),[26],-0.265
same,glycan array binding signal (z-score),[27],-0.281
same,glycan array binding signal (z-score),[28],-0.262
same,glycan array binding signal (z-score),[29],-0.249
same,glycan array binding signal (z-score),[30],-0.34
same,glycan array binding signal (z-score),[31],7.1
same,glycan array binding signal (z-score),[32],-0.032
same,glycan array binding signal (z-score),[33],-0.285
same,glycan array binding signal (z-score),[34],-0.109
same,glycan array binding signal (z-score),[35],-0.372
same,glycan array binding signal (z-score),Neu5Ac(a2-3)GalNAc,-0.289
same,glycan array binding signal (z-score),[36],-0.304
